The other results are listed elsewhere or left out. At the low end of the ranking, values are background and their order means little.
Each sequence was assayed against SIX1-Q177R homeodomain (UniProt Q15475) (assay: universal protein binding microarray). Settings: Universal all-10-mer PBM (8x60K, AMADID 030236), 300 nM GST-tagged protein, Alexa Fluor 488 anti-GST; buffer, salt, pH and temperature not stated; high values mean tight binding; most listed sequences are background and not binding sites; double strand, one strand shown.

| Sequence | binding signal |
| --- | --- |
| AGCATTCC | -0.381 E-score |
| AAGAGACG | -0.0234 E-score |
| AGGTTTAC | 0.0661 E-score |
| AGAAGCGC | -0.0149 E-score |
| AGGAAGGG | -0.193 E-score |
| ACGAGGGC | -0.0253 E-score |
| AAAGTCGA | -0.0293 E-score |
| TCGCTGAA | -0.224 E-score |
| CATCACAG | -0.151 E-score |
| AATCTTCG | -0.322 E-score |
| AGTGGGGA | 0.104 E-score |
| CCGGTAGA | 0.038 E-score |
| CGGGTGAG | 0.0241 E-score |
| CATGGCCC | -0.229 E-score |
| CATTTCAG | 0.0585 E-score |
| AAGTGGAG | -0.0331 E-score |
| ACGTCAGT | -0.142 E-score |
| GTCCACTA | 0.15 E-score |
| CGTTATGC | -0.0728 E-score |
| CTTTTTGC | -0.169 E-score |
| AGTAGATG | -0.0828 E-score |
| CACGAAGC | 0.0701 E-score |
| AATATACT | -0.183 E-score |
| CTTGGGTA | 0.0134 E-score |
| ACCAACGA | 0.187 E-score |

| Sequence | binding signal |
| --- | --- |
| ACACGAAA | 0.302 E-score |
| CGGGATGA | -0.171 E-score |
| CGAGACCC | 0.0864 E-score |
| CGGCAGAC | -0.105 E-score |
| GGCTAGCA | -0.205 E-score |
| ATGCTAAC | 0.144 E-score |
| ACGTAAGA | -0.0933 E-score |
| ACGCTGCT | 0.104 E-score |
| AAGGCTGT | -0.0818 E-score |
| GGCAAGCA | -0.294 E-score |
| AGACTCGA | -0.206 E-score |
| CGTGATTA | 0.0287 E-score |
| TGGCTACA | 0.0519 E-score |
| CGAGGGCG | -0.0918 E-score |
| AGCCAGTG | -0.0125 E-score |
| ACTAATCT | 0.043 E-score |
| AGCGTATG | -0.0904 E-score |
| ATCGCGTC | 0.14 E-score |
| ATCTCGGG | 0.0995 E-score |
| AAGCTTGC | -0.182 E-score |
| ACAGCTTG | -0.062 E-score |
| GGTTCTAA | -0.0349 E-score |
| CCAGCAAG | -0.0803 E-score |
| ATTGCGGG | 0.0525 E-score |
| AACAAGGA | 0.0668 E-score |

| Sequence | binding signal |
| --- | --- |
| CGGGTGCC | 0.145 E-score |
| GGCCCTAA | -0.193 E-score |
| AGAAGGGA | 0.0316 E-score |
| ATCACGTG | 0.0529 E-score |
| CTTTAGCA | -0.145 E-score |
| GCGCCTCA | -0.396 E-score |
| AGTTTTAA | -0.0842 E-score |
| CTCTTACA | 0.183 E-score |
| GTCTCTCA | 0.00979 E-score |
| GCGGTCCC | -0.123 E-score |
| AGCGCCCC | -0.175 E-score |
| CGACAGGA | -0.17 E-score |
| ACCTCCGT | -0.025 E-score |
| TTCTTCAA | -0.166 E-score |
| ACGAGAGC | -0.243 E-score |
| GGAAGAAA | -0.0911 E-score |
| ACTTAAAC | 0.0526 E-score |
| GCATCTGA | -0.157 E-score |
| AGCCCTAC | -0.0459 E-score |
| CGCGTTAC | 0.0473 E-score |
| TAAAGGTA | -0.0186 E-score |
| CCCGCTAG | -0.105 E-score |
| CTATGAGA | -0.156 E-score |
| CGGCCAAA | -0.281 E-score |
| AACAGATT | -0.2 E-score |

| Sequence | binding signal |
| --- | --- |
| AACTTCCT | -0.293 E-score |
| GTGCTCTA | 0.221 E-score |
| GACGACCC | 0.158 E-score |
| CCTCAATA | -0.0948 E-score |
| ACAATCCA | -0.0298 E-score |
| CCTTCATA | -0.00971 E-score |
| GTAATGCA | -0.0872 E-score |
| AGTAGCCC | -0.0534 E-score |
| TACCACCA | 0.0563 E-score |
| ACATGAAA | -0.15 E-score |
| GATAACTA | 0.113 E-score |
| CAAGACTA | -0.202 E-score |
| CTGTATTA | -0.258 E-score |
| AACTACGG | -0.00575 E-score |
| AGATCAAA | -0.184 E-score |
| ACCATTAC | 0.162 E-score |
| CTTGACCC | 0.201 E-score |
| AACGCTCC | -0.165 E-score |
| ACCACAAA | -0.106 E-score |
| CATGTTAC | -0.0595 E-score |
| GGTGACCA | -0.0869 E-score |
| CTAGGTCC | -0.0538 E-score |
| TGATGAAA | -0.151 E-score |
| AATCTCTC | -0.274 E-score |
| ACAGTATC | 0.0486 E-score |

| Sequence | binding signal |
| --- | --- |
| ATTTAAGG | -0.202 E-score |
| TCCAAAAA | -0.208 E-score |
| CCCGCGCG | 0.0351 E-score |
| TAAGTAGA | -0.124 E-score |
| AGATAACG | -0.0978 E-score |
| CTTGAACC | 0.00499 E-score |
| CGCAACGA | -0.0869 E-score |
| ACTTGGTC | 0.0884 E-score |
| CCCAAGCC | 0.0691 E-score |
| AATCAAGG | -0.175 E-score |
| ACGCAAAT | 0.0919 E-score |
| CCTATGCA | -0.0848 E-score |
| ACACCACC | 0.481 E-score |
| CTCGACCA | -0.0276 E-score |
| ATGGCCAT | -0.243 E-score |
| GAAAGATC | -0.244 E-score |
| AAGGCGAC | 0.0508 E-score |
| TAACCGTA | 0.00244 E-score |
| GGGAGGTA | 0.0636 E-score |
| AAGGCCAT | -0.0761 E-score |
| CTTTTATC | -0.109 E-score |
| ATACTGGG | 0.0822 E-score |
| GCGGTCCA | -0.205 E-score |
| CCCCCTCC | 0.182 E-score |
| CATGCGAC | -0.0521 E-score |

| Sequence | binding signal |
| --- | --- |
| AAAAATCC | -0.154 E-score |
| AAAGCACT | 0.0751 E-score |
| CTGCGGGA | -0.00809 E-score |
| AGCACTTC | 0.00248 E-score |
| GGAGGTTA | 0.0855 E-score |
| TGAGCACA | 0.0414 E-score |
| AGAGGGCT | -0.0886 E-score |
| AAGAATGT | -0.34 E-score |
| CATCCTGG | -0.247 E-score |
| AAGCGGCG | -0.0674 E-score |
| CAAAGGGA | 0.0185 E-score |
| AAGAAAGT | -0.215 E-score |
| ACAAGATG | 0.089 E-score |
| CCGAGCGG | 0.0805 E-score |
| ACACGCCA | 0.381 E-score |
| CGCATCGC | -0.284 E-score |
| CCGGTATA | 0.183 E-score |
| GCTGATGA | -0.175 E-score |
| AGGCCCCA | -0.29 E-score |
| ATGTCGTG | 0.222 E-score |
| CTGAAAAA | -0.156 E-score |
| ACGTTGTC | 0.0111 E-score |
| GCAAAACA | -0.0259 E-score |
| CATGAGGG | 0.123 E-score |
| CTCAATTA | -0.0285 E-score |

| Sequence | binding signal |
| --- | --- |
| ATCAGACA | 0.204 E-score |
| GAGGGCCA | -0.195 E-score |
| TGAGGTAA | -0.235 E-score |
| ATGCAATG | -0.0681 E-score |
| TAACGCGA | -0.0997 E-score |
| GGAAACCA | -0.0986 E-score |
| CTTGGAAA | -0.123 E-score |
| CGATTTAA | -0.0559 E-score |
| ACATGCAA | -0.0427 E-score |
| CCTTAGCG | -0.0239 E-score |
| CCAATCCA | 0.0725 E-score |
| AACAACAC | 0.414 E-score |
| AGAAAAGA | -0.119 E-score |
| CTACCCAG | 0.0549 E-score |
| CAGCATCC | -0.221 E-score |
| AGGACAGC | -0.158 E-score |
| CTAAGCCC | -0.114 E-score |
| ATCAGACG | -0.187 E-score |
| ACGCCCCA | 0.114 E-score |
| CGCGGTTA | 0.0939 E-score |
| AGAATTAC | 0.0518 E-score |
| CCCCGATC | 0.0878 E-score |
| ACCCATAA | 0.0912 E-score |
| AGGTCCTG | -0.129 E-score |
| GTTGCATA | 0.132 E-score |

| Sequence | binding signal |
| --- | --- |
| CAAATGCG | -0.0443 E-score |
| GCAGCAAA | -0.294 E-score |
| ACCCTTAC | 0.158 E-score |
| ACAAGGCA | -0.149 E-score |
| CATGCATC | -0.212 E-score |
| CTGGCTTC | -0.115 E-score |
| AACCACGT | 0.0198 E-score |
| AGGTTGCC | -0.267 E-score |
| AAATCGAA | -0.277 E-score |
| CAGTGTAA | 0.42 E-score |
| ACCTATCA | 0.0581 E-score |
| ACTAAAAC | 0.168 E-score |
| ACTATTCC | -0.0422 E-score |
| ATATAATG | -0.0599 E-score |
| ACGTGAAC | -0.15 E-score |
| GCAATCTA | -0.199 E-score |
| CACCATCG | 0.13 E-score |
| AGGAGACC | 0.0681 E-score |
| ATACGAAA | 0.0297 E-score |
| AACCCCGA | 0.232 E-score |
| CCGCGTCG | 0.0929 E-score |
| GCCGGTCA | -0.156 E-score |
| ACAGTAGA | -0.113 E-score |
| CTAACTGA | -0.108 E-score |
| AACATCCA | 0.0307 E-score |

| Sequence | binding signal |
| --- | --- |
| CAACGCGC | -0.122 E-score |
| GTCTACAA | -0.229 E-score |
| GATATCGC | -0.0885 E-score |
| CTGCTAGA | -0.176 E-score |
| AGCAACTC | -0.0167 E-score |
| GACTATCA | -0.145 E-score |
| CGATGGAG | 0.107 E-score |
| GGTGGTGA | -0.017 E-score |
| GAGCCGGC | -0.025 E-score |
| AACCGCAT | -0.223 E-score |
| AAAGCCCG | -0.198 E-score |
| ACACAGAA | 0.0982 E-score |
| CTGCGGTC | -0.152 E-score |
| GAGTCCCC | 0.0416 E-score |
| AGGTACTA | 0.197 E-score |
| ATTGGATG | -0.0987 E-score |
| GTATGTGA | -0.0199 E-score |
| AGGTAATC | -0.202 E-score |
| CAGTGCGA | -0.214 E-score |
